From the supplement of paper PMC11417369
± gives the standard deviation of the averaged measurements. Some of the results follow.

Tested on: PfAP2-I AP2 domain 3 (GST-tagged)
Assay: gcPBM binding intensity (ln(normalized median fluorescence intensity)); higher = stronger DNA binding
Procedure, shortened: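 After 1 h on an Agilent 4 × 180k array of primer-extended double-stranded 36-bp intergenic genomic probes and negative controls, bound GST-tagged P. falciparum DNA-binding domains were detected with Alexa488 anti-GST antibody and scanned at 488 nm. The domains had been expressed in E. coli, and binding took place in 1× PBS with 1% milk, 0.2 mg/ml BSA, 0.5% salmon testes DNA and 0.03% Triton X-100. Binding intensity is the highest Masliner-normalised natural-log median intensity across replicate spots of either probe orientation.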

Sequence | gcPBM binding intensity (ln)
TTTTTTTTTTTTTGTTGTACCCATCATATATACATA [XGTACX_site4342] | 8.21 ± 0.57
TATAAAAATATTTAATGTACGAATCTGTGATATATC [XGTACX_site7881] | 7.71 ± 0.39
AAAATACACGCATACACACACACACGCGCACATATA [CACACA_site6448] | 8.37 ± 0.64
TTTTCATGTTGTAAAGCATGCTTTACTCATAAAAAA [TGCATGCA_site917] | 7.9 ± 0.59
ATTATTAAAAGAAGAAGTACTTATATATTAATATTA [XGTACX_site5227] | 7.71 ± 0.4
CTAAACAGAATTATCACACATATAAATATAAACATA [CACACA_site4560] | 7.56 ± 0.47
ATATATTACATATGTGTGCACGTTCCAAAATTTTTA | 10.2 ± 0.23
TTATTTTATTTTGAAGCATGCTTTTTGCTGTGATAA [TGCATGCA_site278] | 7.53 ± 0.66
AAATAATATTTATACACACACACATATTTATATACA [CACACA_site6403] | 7.91 ± 0.64
TTATGCGTTTGCAAAAGTACATATCTATTATTTTTA [XGTACX_site7609] | 7.72 ± 0.5
ATTGTATATGTATATGCACACAATATATGTACTTAT [CACACA_site2611] | 8.97 ± 0.18
GATATATTATTTGAATGTACATATTATATTTATATT [XGTACX_site907] | 7.71 ± 0.25
TAACATATTATATATACATGCATACGTGAACTAATC [TGCATGCA_site888] | 8.11 ± 0.71
GTTAGAATTGTTAGGTGGTCAAAAAGGAGAAAAAAA [XGTACX_site2086] | 8.35 ± 0.35
TTTTTTTAGTTAATTAAACACACAAAAAAAAAAATA [CACACA_site9301] | 7.65 ± 0.48
ATTATTTAATTTTATTAAAAAAAAACAAATTAACAG [GTGCAC_negctrl_site152] | 7.61 ± 0.38
AAAAGAAAATTAAATTAACACACATAAATATATATA [CACACA_site8482] | 7.91 ± 0.58
TTCACATACAGAAACACACACATATTTATAAATTAA [CACACA_site7699] | 7.79 ± 0.54
TTTTGATATAAATATTAGATTAATAAATAAAAAAAT [CACACA_negctrl_site1635] | 7.8 ± 0.39
TTAAAATAGATATTAGTGCAAAAAAAAAAAAATAAA | 10.7 ± 0.23
TTTTTTGTTTGAATGGTGCATTTTGTAATTATATTT | 10.3 ± 0.41
ATAATATCATAATATTGTACATATTTTATTTTAAAT [XGTACX_site1115] | 7.79 ± 0.38
CAACTAACATATATTCAACACACATATACCTTCAAC [CACACA_site8988] | 7.72 ± 0.49

Sequence | gcPBM binding intensity (ln)
AATACCTTTTAATAATGTACAAACAAAAATTAGAGA [XGTACX_site6850] | 7.72 ± 0.54
TATATATTAAAAATAGTGCAAAATAATATATATATA [GTGCAC_site9716] | 10.78 ± 0.021
ATATATATATATATATGTACATATTCATCTTATTCT [XGTACX_site1537] | 9.3 ± 0.4
AAGGGGAGAAAAATAAACGAAATATATACATACATA [XGTACX_negctrl_site88] | 7.83 ± 0.42
ACAAATAAATATATATGTACATATATTTTTTTATTT [XGTACX_site2989] | 7.64 ± 0.34
TTTTATTTATATTATACACACAAGGAAAAAAAAAAA [CACACA_site7690] | 8.2 ± 0.77
TTTATGCACGCGTGCACACACATATGAAAAAAGGTA [CACACA_site3315] | 10.9 ± 0.72
TATGTTTAAATATATTGTACGCACGTATGTTTTTAA [XGTACX_site1108] | 8.57 ± 0.33
ATATTAATTTTTATTACACACTCTCAATTTTTATTT [CACACA_site58] | 8.15 ± 0.55
AAAATATACATAAACACACACAAAACGTTTAAGAAA [CACACA_site1071] | 7.84 ± 0.63
GTTTAACTGTTTTATACACACAATGTATCCAATAAA [CACACA_site5612] | 7.9 ± 0.58
TTTTAGTTAATTCATGCATGTAAAGTTTTATTTATA [TGCATGCA_site252] | 7.72 ± 0.54
AAAAAAAAAAAAAAAGTACACACTTTTGCGTACATG [CACACA_site3097] | 8.71 ± 0.5
ATGTCTATATATTAAGGTACACATATATGCTATTCA [XGTACX_site6008] | 7.71 ± 0.48
GTATAATATGAACACACACACACACCCAAAAAAAAA [CACACA_site5152] | 8.33 ± 0.31
TTATGGAACCCCATTCGTACATAAATATTTTATATA [XGTACX_site7112] | 7.68 ± 0.49
ATACATATTAACAAGGTGCAAATGGATTTCATAAAA [GTGCAC_site9775] | 10.5 ± 0.33
AATTGTTCGATATATGCACACAGTTTTGTTATTTTT [CACACA_site1615] | 8.78 ± 0.25
TATTTATATTTATATACACACTATATAACTCAAACA [CACACA_site6611] | 7.8 ± 0.53
CTAGCAAATACATACACACACACACGGATACCTATA [CACACA_site7609] | 8.07 ± 0.46
TATATAACTTTATTTTTCTTTACTTATTTTATTTTA [GTGCAC_negctrl_site66] | 7.5 ± 0.5
ATATATATATATATATGTACATATTATTAATAATAT [XGTACX_site6667] | 9.23 ± 0.48
